The supplement of paper PMC11417369
± gives the standard deviation of the averaged measurements. Some of the results follow.

What follows are sequences tested on PfAP2-EXP AP2 domain (GST-tagged) (assay: gcPBM binding intensity (ln(normalized median fluorescence intensity)); higher = stronger DNA binding).
In short: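 Each value is the highest Masliner-normalised natural-log median intensity across replicate spots of either orientation of a probe. The probes were primer-extended double-stranded 36-bp intergenic genomic sequences on an Agilent 4 × 180k array, alongside negative controls, exposed for 1 h to GST-tagged P. falciparum DNA-binding domains expressed in E. coli. Bound protein was picked up with Alexa488 anti-GST antibody and scanned at 488 nm.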

Point of comparison: “CATACATACATATATACACACATATATAATAATATA [CACACA_site2678]”, “gcPBM binding intensity (ln)” value 8.51 ± 0.28. Against it:
- AATTTATTTTTTTAATGTACATATGGTATAAATATA [XGTACX_site8012] — within error, 8.68 ± 0.39
- AATATATATATATGTACACACTCCAATACATATACA [CACACA_site2682] — within error, 8.59 ± 0.31
- TTAAGAATATCTTAGAGTACATTTTATCATCTTAAA [XGTACX_site8298] — lower, 7.96 ± 0.24
- TCTTTTTAAATTACTATAATACATTCATAAATTATA [GTGCAC_negctrl_site448] — within error, 8.27 ± 0.4
- TTTTTTTATTTTATAAAGCAAAAATAAGAATGAAAT [XGTACX_negctrl_site270] — within error, 8.37 ± 0.26
- AGGGAATAAGTAAGGTGTACATAATTATGTTACTTT [XGTACX_site6152] — within error, 8.77 ± 0.3
- TATATGTATGTATGTACACACAAAAAATGGAATATA [CACACA_site3717] — within error, 8.83 ± 0.38
- ATTTAAAACAAAAGTAGTACGTCTAATAAATTCAAC [XGTACX_site4344] — within error, 8.45 ± 0.34
- TTATCAATAAAATGCACACACTGTAATATTATTAAA [CACACA_site6055] — within error, 8.39 ± 0.33
- ATATATATTTATATTTGTACGAATTAAAATTTTTTA [XGTACX_site5200] — within error, 8.48 ± 0.32
- ATAGCTTTTATTTAAAGTACAAAAAGGATGTTGAAA [XGTACX_site3810] — within error, 8.46 ± 0.3
- AAAAAAAAAAAACACACACACACACCCATACATACA [CACACA_site707] — within error, 8.65 ± 0.56
- AGACAAAATGTTTGAAGTACTTTTTATCAAATTAAA [XGTACX_site8885] — within error, 8.4 ± 0.4
- TGATTTTTTCATATTCTACACACGTGAACAAATGTG [CACACA_site8987] — within error, 8.4 ± 0.44
- TTGTTAATAAATAAATAAATAAATATATTTATATAT [GTGCAC_negctrl_site271] — within error, 7.96 ± 0.42
- TTAATTATTATATAAGTGCAATAATAAAAAGTTGTA [GTGCAC_site9552] — within error, 8.65 ± 0.17
- TTTTTTACAATTAACACACTCAAAAATAATATTAAA [CACACA_site5198] — within error, 8.35 ± 0.46
- AATTTTTTAAATGTGTGTACATATTATTTAAATAAT [XGTACX_site5967] — within error, 8.5 ± 0.099
- TATATTATATATATATGTACATATGGCAAAACATTA [XGTACX_site7958] — within error, 8.89 ± 0.41
- AAAAAAAAAAAAAAATGTACCCATAAAATAAGCATT [XGTACX_site8576] — within error, 8.46 ± 0.38
- AATCACAACGAACACACACACAAAAAAAAAAAAAAA [CACACA_site6790] — within error, 8.14 ± 0.53
- ATATATATATCTAATTGTACATATTTTATAAATAAG [XGTACX_site4840] — higher, 9.375 ± 0.064
- AAATACTGATTTGGTTGTACATGTGCACTATATAAC [XGTACX_site3795] — higher, 9.19 ± 0.2
- AAAAATTAAATGTACACACACCTTAAACAATGTCAT [CACACA_site6958] — within error, 8.39 ± 0.38
- TATAATCTAACATAATGTACATGTATATGCACTTTA [XGTACX_site369] — within error, 8.52 ± 0.042
- ATAAATATATTTATATGTACATATAATTTTACATAT [XGTACX_site5440] — within error, 8.89 ± 0.37
- TCCACATTAATGTAATGTACAAAATTAGAAAATAAA [XGTACX_site6287] — within error, 8.62 ± 0.39
- AATATAAATACTCCTACACACATATAAATATAAATA [CACACA_site7419] — within error, 8.45 ± 0.39
- TTTTGATTAAGTGAATTTTTTTATTTATATAAATAT [TGCATGCA_negctrl_site479] — within error, 8.26 ± 0.46
- TACGAATTAAAAAAGAGTACAAATAAAATATCTACA [XGTACX_site7412] — within error, 8.41 ± 0.35
- TTTTAAACACCAATCAAAAAAATATAAATATAAATA [TGCATGCA_negctrl_site552] — within error, 8.39 ± 0.45
- AATTAGCTCAAAGGTTGTACAAATATATTTTAATGG [XGTACX_site2352] — within error, 8.7 ± 0.45
- TCCGTATATTTATACGCATGCATTATGAACATTGTT [TGCATGCA_site613] — higher, 9.25 ± 0.099
- AAATTTTTTTTTGTCATATGATGTTTGAACCCAAAT [CACACA_negctrl_site1659] — within error, 8.48 ± 0.66
- AAAAAAAATAATTTGCGTACATAAAAATTTATAGGA [XGTACX_site3016] — within error, 8.64 ± 0.25
- GGATTACAAATAGGTTGTACGTTTTTTTTTTTTTCT [XGTACX_site3605] — the same, 8.51 ± 0.46
- ATGTAGACTGAAACCACACACACATATATATATATA [CACACA_site606] — higher, 10.1 ± 0.26
- TTACATTGTAAAAAGTGTACATATAATTTAATTAAT [XGTACX_site1834] — within error, 8.61 ± 0.33
- TCATATGTGAAACACACACACACACCCAAAAAAACA [CACACA_site3247] — within error, 8.68 ± 0.52
- TGTTTCTTATTTTTTTCACACACTAATCATTTCAAA [CACACA_site8695] — within error, 8.82 ± 0.52
- ATTATGTTATTATTTTGTACACATAAATAATACGTT [XGTACX_site816] — within error, 8.61 ± 0.35
- GAACAAAAATACTTATGTACACATTAGCAAGGAAAA [XGTACX_site5622] — within error, 8.74 ± 0.41
- ATCTGAAAAATTAATAGTACAATTAATAATTAAACC [XGTACX_site8523] — within error, 8.72 ± 0.3
- TATACGCATATATACACACACATATATATATATATA [CACACA_site3416] — higher, 9.92 ± 0.44
- AAACAAAAAAGAAGCACACATATATATATATATATG [CACACA_site2456] — within error, 8.86 ± 0.25
- AACAAACAAATAGTTTATTTTGATTTTTTTAAAAAT [CACACA_negctrl_site693] — within error, 7.93 ± 0.47
- TGTTAATTTCATTTTCTACACACCTATCCTTTTTTT [CACACA_site8157] — within error, 8.88 ± 0.47
- ACAAATAAATATTCGCGTACTTATATAATATTACGA [XGTACX_site6428] — within error, 8.61 ± 0.3
- AAAAAAAATATCCGACGTACTATTTTCGTAGAAATA [XGTACX_site6292] — within error, 8.27 ± 0.44
- AAAAAAAAAAAAAAAAAAAAAAAAATCACACATTGG [TGCATGCA_negctrl_site412] — higher, 9.1 ± 0.11
- TTTTGGATGTATTATACATGCATATTATTATAATAT [TGCATGCA_site997] — within error, 8.72 ± 0.54
- TGTACAACAATTTTTGCACACACCAAAACATAAAAT [CACACA_site1598] — within error, 8.82 ± 0.36
- AAAAAAAAAAAATAAAGTACTAAATAATACATTATA [XGTACX_site6203] — within error, 8.13 ± 0.33
- AGAAAAGAAATTAAATGTACACAACTATAACCAAAT [XGTACX_site8084] — within error, 8.98 ± 0.35
- TTTTATAAAATATAATATAATAATATATGTATAATA [CACACA_negctrl_site1788] — within error, 8.12 ± 0.42
